# In the supplement of paper PMC8728848:
# This is one part of the list.
# Columns and labels:
# Test in all cases: glycan array binding signal (z-score within array); higher = stronger binding
# Details in all cases: glycan notation: IUPAC condensed, linker removed
# [1] = biological target: Neu5Ac(a2-3)Gal(b1-4)GlcNAc(b1-3)[Neu5Ac(a2-3)Gal(b1-4)GlcNAc(b1-6)]GalNAc
# Procedure, shortened: (§1)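 The binding signal is a Z-score computed within each array and averaged over linkers. Arrays of the same protein sequence at different concentrations or buffers were also averaged together. Data originate from 3228 arrays in the Consortium for Functional Glycomics database, kept only where the protein sequence was available.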
# [2] = biological target: Neu5Ac(a2-3)Gal(b1-4)GlcNAc(b1-6)GalNAc
# Procedure, shortened: as §1
# [3] = biological target: Neu5Ac(a2-3)Gal(b1-4)GlcNAc(b1-6)[Gal(b1-3)]GalNAc
# Procedure, shortened: as §1
# [4] = biological target: Neu5Ac(a2-3)Gal(b1-4)GlcNAc(b1-6)[Neu5Ac(a2-3)Gal(b1-3)]GalNAc
# Procedure, shortened: as §1
# [5] = biological target: Neu5Ac(a2-3)Gal(b1-4)GlcNAc6S
# Procedure, shortened: as §1
# [6] = biological target: Neu5Ac(a2-3)Gal(b1-4)[Fuc(a1-3)]GlcNAc
# Procedure, shortened: as §1
# [7] = biological target: Neu5Ac(a2-3)Gal(b1-4)[Fuc(a1-3)]GlcNAc(b1-2)Man
# Procedure, shortened: as §1
# [8] = biological target: Neu5Ac(a2-3)Gal(b1-4)[Fuc(a1-3)]GlcNAc(b1-3)Gal
# Procedure, shortened: as §1
# [9] = biological target: Neu5Ac(a2-3)Gal(b1-4)[Fuc(a1-3)]GlcNAc(b1-3)Gal(b1-4)GlcNAc
# Procedure, shortened: as §1
# [10] = biological target: Neu5Ac(a2-3)Gal(b1-4)[Fuc(a1-3)]GlcNAc(b1-3)Gal(b1-4)[Fuc(a1-3)]GlcNAc(b1-3)Gal(b1-4)[Fuc(a1-3)]GlcNAc
# Procedure, shortened: as §1
# [11] = biological target: Neu5Ac(a2-3)Gal(b1-4)[Fuc(a1-3)]GlcNAc(b1-3)GalNAc
# Procedure, shortened: as §1
# [12] = biological target: Neu5Ac(a2-3)Gal(b1-4)[Fuc(a1-3)]GlcNAc(b1-6)[Gal(b1-3)]GalNAc
# Procedure, shortened: as §1
# [13] = biological target: Neu5Ac(a2-3)Gal(b1-4)[Fuc(a1-3)]GlcNAc(b1-6)[Neu5Ac(a2-3)Gal(b1-3)]GalNAc
# Procedure, shortened: as §1
# [14] = biological target: Neu5Ac(a2-3)Gal(b1-4)[Fuc(a1-3)]GlcNAc6S
# Procedure, shortened: as §1
# [15] = biological target: Neu5Ac(a2-3)Gal6S(b1-4)GlcNAc
# Procedure, shortened: as §1
# [16] = biological target: Neu5Ac(a2-3)Gal6S(b1-4)[Fuc(a1-3)]GlcNAc
# Procedure, shortened: as §1
# Neu5Ac(a2-3)GalNAc = biological target: Neu5Ac(a2-3)GalNAc
# Procedure, shortened: as §1
# [17] = biological target: Neu5Ac(a2-3)GalNAc(b1-4)GlcNAc
# Procedure, shortened: as §1
# [18] = biological target: Neu5Ac(a2-3)[GalNAc(b1-4)]Gal(b1-4)Glc
# Procedure, shortened: as §1
# [19] = biological target: Neu5Ac(a2-3)[GalNAc(b1-4)]Gal(b1-4)GlcNAc
# Procedure, shortened: as §1
# [20] = biological target: Neu5Ac(a2-3)[GalNAc(b1-4)]Gal(b1-4)GlcNAc(b1-3)GalNAc
# Procedure, shortened: as §1
# [21] = biological target: Neu5Ac(a2-3)[Neu5Ac(a2-6)]GalNAc
# Procedure, shortened: as §1
# Neu5Ac(a2-6)Gal = biological target: Neu5Ac(a2-6)Gal
# Procedure, shortened: as §1
# [22] = biological target: Neu5Ac(a2-6)Gal(b1-3)GlcNAc(b1-3)[Gal(b1-4)GlcNAc(b1-6)]Gal(b1-4)Glc
# Procedure, shortened: as §1
# Neu5Ac(a2-6)Gal(b1-4)Glc = biological target: Neu5Ac(a2-6)Gal(b1-4)Glc
# Procedure, shortened: as §1
# [23] = biological target: Neu5Ac(a2-6)Gal(b1-4)GlcNAc
# Procedure, shortened: as §1
# [24] = biological target: Neu5Ac(a2-6)Gal(b1-4)GlcNAc(b1-2)Man
# Procedure, shortened: as §1
# [25] = biological target: Neu5Ac(a2-6)Gal(b1-4)GlcNAc(b1-2)Man(a1-3)Man(b1-4)GlcNAc(b1-4)GlcNAc
# Procedure, shortened: as §1
# [26] = biological target: Neu5Ac(a2-6)Gal(b1-4)GlcNAc(b1-2)Man(a1-3)[Gal(b1-4)GlcNAc(b1-2)Man(a1-6)]Man(b1-4)GlcNAc(b1-4)GlcNAc
# Procedure, shortened: as §1
# [27] = biological target: Neu5Ac(a2-6)Gal(b1-4)GlcNAc(b1-2)Man(a1-3)[GlcNAc(b1-2)Man(a1-6)]Man(b1-4)GlcNAc(b1-4)GlcNAc
# Procedure, shortened: as §1
# [28] = biological target: Neu5Ac(a2-6)Gal(b1-4)GlcNAc(b1-2)Man(a1-3)[GlcNAc(b1-4)][Neu5Ac(a2-6)Gal(b1-4)GlcNAc(b1-2)Man(a1-6)]Man(b1-4)GlcNAc(b1-4)GlcNAc
# Procedure, shortened: as §1
binder,measurement,setting,value
"LgFlo1 (Saccharomyces pastorianus), B3IUA8 (protein) SGSTQACLPVGSRKNGMNVNFYKYSLQDSTTYSDPQYMAYKYSDTKKLGSVSGQTHLSIYYGPNTAFWNTASWSSDLFGFYTTPTNVTVEMTGYFLPPQTGSYTFKFATVDDSAILSVGGSIAFECCAQEQPPITSTDFTINGIKPWDAATPTDIKGSTYMYAGYYYPIKIVYSNAKALARLPVSVVLPDGTEVNDDFEGYVYSFDDDLSQSNCTIPDPSKHTTS",glycan array binding signal (z-score),[1],-0.262
same,glycan array binding signal (z-score),[2],-0.054
same,glycan array binding signal (z-score),[3],-0.09
same,glycan array binding signal (z-score),[4],-0.221
same,glycan array binding signal (z-score),[5],-0.326
same,glycan array binding signal (z-score),[6],-0.099
same,glycan array binding signal (z-score),[7],-0.151
same,glycan array binding signal (z-score),[8],-0.076
same,glycan array binding signal (z-score),[9],-0.298
same,glycan array binding signal (z-score),[10],-0.167
same,glycan array binding signal (z-score),[11],1.51
same,glycan array binding signal (z-score),[12],-0.279
same,glycan array binding signal (z-score),[13],-0.12
same,glycan array binding signal (z-score),[14],-0.328
same,glycan array binding signal (z-score),[15],-0.229
same,glycan array binding signal (z-score),[16],-0.151
same,glycan array binding signal (z-score),Neu5Ac(a2-3)GalNAc,-0.219
same,glycan array binding signal (z-score),[17],-0.152
same,glycan array binding signal (z-score),[18],0.03
same,glycan array binding signal (z-score),[19],-0.152
same,glycan array binding signal (z-score),[20],-0.107
same,glycan array binding signal (z-score),[21],-0.356
same,glycan array binding signal (z-score),Neu5Ac(a2-6)Gal,-0.293
same,glycan array binding signal (z-score),[22],-0.357
same,glycan array binding signal (z-score),Neu5Ac(a2-6)Gal(b1-4)Glc,-0.305
same,glycan array binding signal (z-score),[23],-0.403
same,glycan array binding signal (z-score),[24],-0.331
same,glycan array binding signal (z-score),[25],-0.1
same,glycan array binding signal (z-score),[26],-0.38
same,glycan array binding signal (z-score),[27],-0.371
same,glycan array binding signal (z-score),[28],-0.203
